From the supplement of paper PMC10126150 come the findings set out here.

Values marked as one replicate rest on one cluster of the flow cell; about a third of the high ones do not repeat.
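Further: ATP exposure 15 min at 22 °C before imaging.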

The first data set relates to ATP. Briefly: switch fluorescence ratio, 500 uM ATP over buffer (Cy3 cluster intensity, sum of 5 cycles each) (fold (ratio)); higher = stronger signal-on switching upon ATP binding. The conditions noted are these: aptamer strand: ATP DNA aptamer (quencher-CACCTGGGGGAGTATTGCGGAGGAAGG + anchor), 100 nM annealed; ATP concentration: 500 uM; one replicate. The essentials:
(§1)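 Imaging in selection buffer was followed by imaging after 15 min with 500 uM ATP at 22 °C, for Cy3-labelled switching-strand clusters annealed to 100 nM quencher-labelled ATP aptamer on a modified Illumina MiSeq flow-cell. Five of these buffer/ATP cycles ran, separated by NaOH stripping and re-annealing. The fluorescence ratio per cluster is summed target-cycle over summed buffer-cycle Cy3 intensity, averaged per switch-domain sequence; clusters outside 100-1000 RFU were removed.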
For the sequence “TCGTCGGCAGCGTCAGATGTGTATAAGAGACAGTTTTTTTTTTTTTTTTTTTTTTTTTGTTC”, the switch fluorescence ratio was 1.

A further data set has as its system ATP. In words: switch fluorescence ratio, 500 uM ATP over buffer (Cy3 cluster intensity, sum of 5 cycles each) (fold (ratio)); higher = stronger signal-on switching upon ATP binding; sequences stand for … in TCGTCGGCAGCGTCAGATGTGTATAAGAGACAGTTTTTTTTTTTTTTTTTTTTTTTTT…TC. The conditions noted are these: aptamer strand: ATP DNA aptamer (quencher-CACCTGGGGGAGTATTGCGGAGGAAGG + anchor), 100 nM annealed; ATP concentration: 500 uM; one replicate. The procedure, abridged: as §1
As for GCATCTTCTG, the switch fluorescence ratio turned out to be 0.954. As to CTGGGGCGAA, the switch fluorescence ratio was determined as 0.98. Same read-out and setting: the result for GCGAGCAGTT reads 0.961. In the case of AATGGTTG, the switch fluorescence ratio came out at 1.02. CGAAGTTGGA: the switch fluorescence ratio came out at 0.942. Turning to TCCCGGGTGA, the switch fluorescence ratio turned out to be 1.02.

As to ATGCACTTTA, the switch fluorescence ratio was 1.08. Same read-out and setting: under TTCAGTGTAC stands 1.1; under ACTATGTATC, 0.995; under ATGTTTTACT, 1.01. Still for that read-out and setting: under TATTAACCTC stands 1.01.

TCCATAAAAG: the switch fluorescence ratio worked out at 1.

Regarding GGTTGGGGTC, the switch fluorescence ratio was 0.962. On the same count and under the same terms, under GTCAAAAACG stands 1.05; under GAAAGATGT, 0.992. The same measure, in the same setting: under TTGGATAGAT stands 0.974; under CAGGGTGCC, 1.06; under TAAGATACAG, 1.02. TATAAGGTGG: the switch fluorescence ratio is 0.996. On the same count and under the same terms, the result for ACGCGCTTCA reads 1.03; that for CCTTGTGCGA, 2.01. On the same count and under the same terms, the result for AACTGCGTTG reads 0.946. Same read-out and setting: the result for GGCTGAATAT reads 0.982; that for CACTTGTTGG, 1.01; that for CCTACCCGGG, 1.06. For the sequence AAATGCCGCT, the switch fluorescence ratio came to 1.08.

As to GCCGTCGGGT, the switch fluorescence ratio came to 1.02. As to AAGGCAAATG, the switch fluorescence ratio worked out at 1.04.

In the case of GTTCAGAGG, the switch fluorescence ratio was 0.994. The same measure, in the same setting: the result for CCTACGTCAG reads 2.58; that for CATATTGTTA, 1.01; that for CATACATAGT, 1.07. CTTCCTCGAC: the switch fluorescence ratio was found to be 4.11. Still for that read-out and setting: under AGTGAAGCGT stands 1.05; under AAATCTTTTA, 0.98; under TTGACACGCT, 1.23. Same read-out and setting: under GAGTGTACAA stands 1.01.
